Results published in PMC4993004.
Results are given in words; binding and its absence hold for the method and conditions named. In cells and extracts the contact can be indirect. Some binding calls cover weakened binding; strength is not graded here.

Sequences of proteins named here, by UniProt entry; tags and fusion partners are left off.
UniProt P10085: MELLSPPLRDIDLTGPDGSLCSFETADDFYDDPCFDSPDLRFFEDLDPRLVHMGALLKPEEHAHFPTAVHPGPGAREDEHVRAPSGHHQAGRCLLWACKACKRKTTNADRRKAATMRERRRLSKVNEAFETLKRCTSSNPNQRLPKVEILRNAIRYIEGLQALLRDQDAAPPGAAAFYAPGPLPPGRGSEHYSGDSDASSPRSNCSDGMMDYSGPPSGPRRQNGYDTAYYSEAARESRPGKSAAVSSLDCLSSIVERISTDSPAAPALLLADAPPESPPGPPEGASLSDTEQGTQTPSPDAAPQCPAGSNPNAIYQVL

Legend:
[1] = target: T1, KMT1A (lysine methyltransferase 1A) (mouse (endogenous in C2C12)) (UniProt O54864); experiment: co-IP; anti-KMT1A immunoprecipitates from extracts of C2C12 cells grown in GM, or in DM with SB203580 (also cells with empty vector in GM); western blot for MyoD; control IgG
T1 sequence: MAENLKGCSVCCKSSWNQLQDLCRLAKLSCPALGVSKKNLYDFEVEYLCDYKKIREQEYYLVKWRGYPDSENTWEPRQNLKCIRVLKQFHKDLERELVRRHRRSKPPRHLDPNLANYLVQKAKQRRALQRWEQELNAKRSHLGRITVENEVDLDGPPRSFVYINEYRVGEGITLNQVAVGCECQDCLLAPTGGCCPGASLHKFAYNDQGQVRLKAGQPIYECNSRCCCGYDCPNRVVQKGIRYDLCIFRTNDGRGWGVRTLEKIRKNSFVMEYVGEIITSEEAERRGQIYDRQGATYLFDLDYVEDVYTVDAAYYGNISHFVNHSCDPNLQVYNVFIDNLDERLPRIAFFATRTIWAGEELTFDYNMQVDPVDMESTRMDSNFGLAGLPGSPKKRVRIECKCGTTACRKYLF

[2] = target: T1, KMT1A (lysine methyltransferase 1A) (mouse (endogenous in C2C12)); experiment: condition: only cells in DM without SB (p38α active); co-IP; anti-KMT1A immunoprecipitates from extracts of C2C12 cells in DM without SB (also cells with empty vector in DM); western blot for MyoD
[3] = target: T1, KMT1A (lysine methyltransferase 1A) (mouse (endogenous in C2C12)); experiment: condition: only cells overexpressing MKK6EE (p38α activated), in GM; co-IP; anti-KMT1A immunoprecipitates from extracts of C2C12 cells overexpressing HA-MKK6EE (lentiviral), grown in GM; western blot for MyoD

MyoD (from UniProt P10085 1-318)
binding [1]: binds | binding [2]: no binding | binding [3]: no binding
